Data from the supplement of paper PMC8728848.
Some of the results follow.

Tests used:
Assay in all cases: glycan array binding signal (z-score within array); higher = stronger binding
Settings in all cases: glycan notation: IUPAC condensed, linker removed
[1] = molecular target: Gal(a1-3)Gal(b1-3)GlcNAc
Summary of the method: (§1)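 Columns mapping to the same glycan were averaged after glycan names were converted to IUPAC-condensed notation. The data come from 3228 arrays in the Consortium for Functional Glycomics database, limited to those with an available protein sequence. Binding is reported as a within-array Z-score averaged across arrays of one protein sequence and across linkers.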

[2] = molecular target: Gal(a1-3)Gal(b1-3)GlcNAc(b1-2)Man
Summary of the method: as §1

[3] = molecular target: Gal(a1-3)Gal(b1-3)GlcNAc(b1-2)Man(a1-3)[Gal(a1-3)Gal(b1-3)GlcNAc(b1-2)Man(a1-6)]Man(b1-4)GlcNAc(b1-4)GlcNAc
Summary of the method: as §1

[4] = molecular target: Gal(a1-3)Gal(b1-3)GlcNAc(b1-3)GalNAc
Summary of the method: as §1

[5] = molecular target: Gal(a1-3)Gal(b1-3)GlcNAc(b1-6)GalNAc
Summary of the method: as §1

[6] = molecular target: Gal(a1-3)Gal(b1-3)[Fuc(a1-4)]GlcNAc(b1-2)Man(a1-3)[Gal(a1-3)Gal(b1-3)[Fuc(a1-4)]GlcNAc(b1-2)Man(a1-6)]Man(b1-4)GlcNAc(b1-4)GlcNAc
Summary of the method: as §1

[7] = molecular target: Gal(a1-3)Gal(b1-4)Glc
Summary of the method: as §1

[8] = molecular target: Gal(a1-3)Gal(b1-4)GlcNAc
Summary of the method: as §1

[9] = molecular target: Gal(a1-3)Gal(b1-4)GlcNAc(b1-2)Man
Summary of the method: as §1

[10] = molecular target: Gal(a1-3)Gal(b1-4)GlcNAc(b1-2)Man(a1-3)[Gal(a1-3)Gal(b1-4)GlcNAc(b1-2)Man(a1-6)]Man(b1-4)GlcNAc(b1-4)GlcNAc
Summary of the method: as §1

[11] = molecular target: Gal(a1-3)Gal(b1-4)GlcNAc(b1-3)GalNAc
Summary of the method: as §1

[12] = molecular target: Gal(a1-3)Gal(b1-4)GlcNAc(b1-6)GalNAc
Summary of the method: as §1

[13] = molecular target: Gal(a1-3)Gal(b1-4)[Fuc(a1-3)]GlcNAc
Summary of the method: as §1

[14] = molecular target: Gal(a1-3)Gal(b1-4)[Fuc(a1-3)]GlcNAc(b1-2)Man(a1-3)[Gal(a1-3)Gal(b1-4)[Fuc(a1-3)]GlcNAc(b1-2)Man(a1-6)]Man(b1-4)GlcNAc(b1-4)GlcNAc
Summary of the method: as §1

[15] = molecular target: Gal(a1-3)GalNAc
Summary of the method: as §1

[16] = molecular target: Gal(a1-3)[Gal(a1-4)]Gal(b1-4)GlcNAc
Summary of the method: as §1

[17] = molecular target: Gal(a1-4)Gal(b1-3)GlcNAc(b1-2)Man(a1-3)[Gal(a1-4)Gal(b1-3)GlcNAc(b1-2)Man(a1-6)]Man(b1-4)GlcNAc(b1-4)GlcNAc
Summary of the method: as §1

[18] = molecular target: Gal(a1-4)Gal(b1-4)Glc
Summary of the method: as §1

[19] = molecular target: Gal(a1-4)Gal(b1-4)GlcNAc
Summary of the method: as §1

[20] = molecular target: Gal(a1-4)Gal(b1-4)GlcNAc(b1-2)Man(a1-3)[Gal(a1-4)Gal(b1-4)GlcNAc(b1-2)Man(a1-6)]Man(b1-4)GlcNAc(b1-4)GlcNAc
Summary of the method: as §1

[21] = molecular target: Gal(a1-4)Gal(b1-4)GlcNAc(b1-3)Gal(b1-4)Glc
Summary of the method: as §1

[22] = molecular target: Gal(a1-4)GlcNAc
Summary of the method: as §1

[23] = molecular target: Gal(a1-6)Glc
Summary of the method: as §1

[24] = molecular target: Gal(b1-2)Gal
Summary of the method: as §1

[25] = molecular target: Gal(b1-3)Gal
Summary of the method: as §1

[26] = molecular target: Gal(b1-3)Gal(b1-4)GlcNAc
Summary of the method: as §1

[27] = molecular target: Gal(b1-3)GalNAc
Summary of the method: as §1

[28] = molecular target: Gal(b1-3)GalNAc(a1-3)[Fuc(a1-2)]Gal(b1-4)Glc
Summary of the method: as §1

[29] = molecular target: Gal(b1-3)GalNAc(a1-3)[Fuc(a1-2)]Gal(b1-4)GlcNAc
Summary of the method: as §1

[30] = molecular target: Gal(b1-3)GalNAc(b1-3)Gal
Summary of the method: as §1

[31] = molecular target: Gal(b1-3)GalNAc(b1-3)Gal(a1-4)Gal(b1-4)Glc
Summary of the method: as §1

[32] = molecular target: Gal(b1-3)GalNAc(b1-4)Gal(b1-4)Glc
Summary of the method: as §1

[33] = molecular target: Gal(b1-3)GalNAc(b1-4)[Neu5Ac(a2-3)]Gal(b1-4)Glc
Summary of the method: as §1

[34] = molecular target: Gal(b1-3)GlcNAc
Summary of the method: as §1

[35] = molecular target: Gal(b1-3)GlcNAc(a1-3)Gal(b1-4)GlcNAc
Summary of the method: as §1

[36] = molecular target: Gal(b1-3)GlcNAc(a1-6)Gal(b1-4)GlcNAc
Summary of the method: as §1

[37] = molecular target: Gal(b1-3)GlcNAc(b1-2)Man
Summary of the method: as §1

[38] = molecular target: Gal(b1-3)GlcNAc(b1-2)Man(a1-3)[Gal(b1-3)GlcNAc(b1-2)Man(a1-6)]Man(b1-4)GlcNAc(b1-4)GlcNAc
Summary of the method: as §1

B1: Cohesin-marm-DC-ASGPR (protein)
chain: LDITSHHHHHHDDLDAVRIKVDTVNAKPGDTVRIPVRFSGIPSKGIANCDFVYSYDPNVLEIIEIEPGDIIVDPNPDKSFDTAVYPDRKIIVFLFAEDSGTGAYAITKDGVFATIVAKVKEGAPNGLSVIKFVEVGGFANNDLVEQKTQFFDGGVNVGDTTEPATPTTPVTTPTTTDDLDAASSKFQRDLVTLRTDFSNFTSNTLAEIQALTSQGSSLQETIASLKAEVEGHKQELQAGASELQEHNKQKAHLGRCPHTCVCPSSFVCVPVHSEILLRVQQLVQDLNKLSCQVAILKNNATTERTCCPINWVEHQGSCYWFSRSGKTWPEAERYCQLENTHLVVINSREEQNFVQAHLGSAYTWMGLSDPEGVWKWVDGTDYSSGFQNWKPGQPDDWQGHGLGGGEDCAHFHPDGRWNDDVCQRSYHWVCEAGLTQASQDSHAS
glycan array binding signal (z-score) [1]: -0.003
glycan array binding signal (z-score) [2]: -0.308
glycan array binding signal (z-score) [3]: -0.271
glycan array binding signal (z-score) [4]: -0.265
glycan array binding signal (z-score) [5]: 3.73
glycan array binding signal (z-score) [6]: -0.285
glycan array binding signal (z-score) [7]: -0.28
glycan array binding signal (z-score) [8]: -0.291
glycan array binding signal (z-score) [9]: -0.224
glycan array binding signal (z-score) [10]: -0.186
glycan array binding signal (z-score) [11]: -0.3
glycan array binding signal (z-score) [12]: 3.96
glycan array binding signal (z-score) [13]: -0.243
glycan array binding signal (z-score) [14]: -0.244
glycan array binding signal (z-score) [15]: -0.297
glycan array binding signal (z-score) [16]: -0.307
glycan array binding signal (z-score) [17]: -0.256
glycan array binding signal (z-score) [18]: -0.302
glycan array binding signal (z-score) [19]: -0.301
glycan array binding signal (z-score) [20]: -0.267
glycan array binding signal (z-score) [21]: -0.301
glycan array binding signal (z-score) [22]: -0.223
glycan array binding signal (z-score) [23]: -0.166
glycan array binding signal (z-score) [24]: -0.014
glycan array binding signal (z-score) [25]: -0.286
glycan array binding signal (z-score) [26]: -0.3
glycan array binding signal (z-score) [27]: -0.247
glycan array binding signal (z-score) [28]: -0.298
glycan array binding signal (z-score) [29]: -0.296
glycan array binding signal (z-score) [30]: -0.3
glycan array binding signal (z-score) [31]: 0.884
glycan array binding signal (z-score) [32]: -0.301
glycan array binding signal (z-score) [33]: 0.852
glycan array binding signal (z-score) [34]: -0.281
glycan array binding signal (z-score) [35]: -0.31
glycan array binding signal (z-score) [36]: -0.281
glycan array binding signal (z-score) [37]: -0.212
glycan array binding signal (z-score) [38]: -0.298
